From PubChem BioAssay AID652104 (National Center for Advancing Translational Sciences (NCATS), 2013)
In all, about 410,000 compounds went through this assay and about 7,200 (1.8%) were called active. The inconclusive results got no clear call from the source; some entries with a clear call stand among them for comparison. Calls follow the shape of the dose curve; as a rule, active = well fitted activation curve with a large enough effect; inconclusive = small, poorly fitted or top-dose-only effect, or another doubt; inactive = no such curve, though single readings can be large or run the other way. Potencies of inconclusive entries are left out as doubtful fits.
Potency is read from the fitted curve at half-maximal effect; tags tell the direction and shape of the fitted curve.

Assay: qHTS of TDP-43 Inhibitors; also: nearly all actives have a fitted effect of over 50% in size; as to growth rescue (activation): % of control where 0% means no effect
Conditions: TDP-43 expressing yeast growth rescue, BacTiter-Glo, 24 h; growth rescue (activation): at 46.1 µM (top of the series) unless noted
How it was run: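 Luminescence from BacTiter-Glo reports growth of TDP-43-expressing yeast after 24 hr at 30 deg C with compound. Cells were raffinose-pregrown to mid-log, then seeded in galactose medium at OD600=0.02.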
In the case of `COc1ccc2nc(NN=C(C)c3ccccn3)cc(C)c2c1`, the Potency is reported as inconclusive [activator, single point].
In the case of `CCOC(=O)Cc1csc(NC(=O)c2ccc(F)cc2)n1`, the Potency is reported as inconclusive [activator, partial curve].
For `O=C(O)c1ccsc1Cc1cccs1`, the Potency was inconclusive [activator, single point].
For `CCCCOc1ccc(C(=O)NCC2(c3ccc(OC)cc3)CCOCC2)cc1`, the Potency was inconclusive [activator, single point].
For `O=[N+]([O-])c1cnccc1Nc1ccccc1`, the Potency was inconclusive [activator, single point].
In the case of `COc1ccc(C2/C=C\CN(C(=O)c3ccccc3)CC(=O)N2Cc2cccc(F)c2)cc1` (stereo unspecified), the Potency is reported as inconclusive [activator, single point].
For `Cc1cccc(NC(=O)c2cc(Cl)ccc2[N+](=O)[O-])c1`, the Potency was inconclusive [activator, single point].
For `COc1ccc(C(C)(O)c2nc(-c3ccc(S(C)(=O)=O)cc3)cs2)cc1` (stereo unspecified), the Potency was inconclusive [activator, single point].
With `COc1ccc(NC(=O)c2noc(C(C)C)c2[N+](=O)[O-])cc1` the growth rescue (activation) was inactive: 5.1% [at 0.397 µM].
With `COC(=O)c1cccc(Nc2cc(C)nc(-c3ccccc3O)n2)c1` the Potency was inconclusive [activator, partial curve].
In the case of `CO[C@@]1(NC(=O)C2SC(=C(C(N)=O)C(=O)O)S2)C(=O)N2C(C(=O)O)=C(CSc3nnnn3C)CS[C@@H]21` (stereo partly specified), the Potency is reported as inconclusive [activator, partial curve, poor fit].
With `O=C(NCc1ccccn1)Nc1cc(Cl)ccc1Cl` the Potency was inconclusive [activator, partial curve].
With `CC(OC(=O)c1ccc([N+](=O)[O-])s1)C(=O)Nc1ncc(Cl)cc1Cl` (stereo unspecified) the Potency was inconclusive [activator, full curve, poor fit].
With `Cn1c2c(c3ccccc31)CC/C2=N\O` the Potency was inconclusive [activator, single point].
In the case of `CCOC(=O)[C@]12CCCC=C1N(CCC1=CCCCC1)C(=O)[C@H](CC(=O)N1CCC(c3ccccc3)CC1)C2`, the Potency is reported as “inactive”.
With `COc1ccc(-n2c(C)cc(C(=O)CSc3nnc(-c4ccoc4C)n3C)c2C)cc1` the Potency was inconclusive [activator, single point].
With `CCn1cc(SCC(=O)NCc2ccc3c(c2)OCO3)c2ccccc21` the Potency was inconclusive [activator, single point].
With `CCN(CC)CCN1C(=O)C(=O)/C(=C(/O)c2ccc(C)cc2)C1c1cccnc1` (stereo unspecified) the Potency was “inactive”.
For `Fc1ccccc1Cn1c(-c2ccccc2)nc2ccccc21`, the Potency was active: 22.4 µM.
For `Clc1ccccc1CNc1ncnc2c1c(-c1ccccc1)cn2-c1ccccc1`, the Potency was “inactive”.
With `CCOc1ccc(/C=N/OC(C)C(=O)NCc2ccc3c(c2)OCO3)cc1` (stereo unspecified) the Potency was inconclusive [activator, single point].
For `COC(=O)c1cnn(-c2nc(-c3ccccc3)cs2)c1N`, the Potency was inconclusive [activator, full curve].
With `O=C(CSCc1ccccc1Cl)NCCSc1ccccn1` the Potency was inconclusive [activator, partial curve, poor fit].
With `C[C@H]1CN([C@@H](C)CO)C(=O)c2cc(Br)cnc2O[C@@H]1CN(C)C(=O)CN(C)C` the Potency was “inactive”.
For `CC(Nc1cccc2ccccc12)C(=O)N/N=C/c1ccc([N+](=O)[O-])cc1` (stereo unspecified), the Potency was inconclusive [activator, single point].
In the case of `O=C(NC1CC1)c1ccc2sc([C@H]3C[C@H](O)[C@@H](CO)O3)nc2c1`, the Potency is reported as inconclusive [activator, full curve, poor fit].
For `Fc1ccc(CSc2nnc(-c3cnccn3)n2Cc2ccco2)cc1`, the Potency was inconclusive [activator, partial curve].
In the case of `O=C(NC1CCSc2ccccc21)c1ccccc1F` (stereo unspecified), the Potency is reported as inconclusive [activator, single point].
With `Cc1ccc2c(c1)-c1c(cnn1CC(=O)NC(C)CCc1ccco1)CO2` (stereo unspecified) the Potency was “inactive”.
With `COc1ccc(CCNC(=O)NC2CCCCC2)cc1` the Potency was inconclusive [activator, partial curve, poor fit].
With `Cc1cc2occ(CC(=O)N(C)CC(=O)Nc3cccc(F)c3)c2cc1C` the Potency was inconclusive [activator, partial curve].
With `COc1ccc(CCC(=O)OCC(=O)NCc2ccc3c(c2)OCO3)cc1` the Potency was inconclusive [activator, partial curve].
For `Cc1ccc(-c2cc(C(=O)Oc3ccccc3)c3cc(C)ccc3n2)cc1`, the growth rescue (activation) was inconclusive: 33% [activator].
For `Cc1ccc2oc3c(c(=O)c2c1)C(c1cccc(O)c1)N(c1ccccn1)C3=O` (stereo unspecified), the Potency was “inactive”.
With `Cc1cccc(C)c1NC(=S)N/N=C/c1ccc(OCCC(C)C)cc1` the Potency was inconclusive [activator, single point].
In the case of `CCOC(=O)C[C@H]1c2ccc(C(F)(F)F)cc2S(=O)(=O)N1c1cccc(OC)c1`, the Potency is reported as inconclusive [activator, partial curve].
For `COc1ccccc1-c1n[nH]c2c1[C@H](C)CC[C@H]2C(C)C`, the Potency was active: 25.1 µM.
With `Cc1cccc(C)c1NC(=O)C(C1CC1)n1c(=O)c(-c2cc3ccccc3[nH]2)nc2ccccc21` (stereo unspecified) the Potency was inconclusive [activator, partial curve, poor fit].
With `O=C(Nc1ccn(-c2ccccc2)n1)c1ccc(Cl)cc1` the Potency was inconclusive [activator, full curve, poor fit].
With `O=C(Nc1ccc(Cl)cn1)C1CCCN(c2ncnc3c2nc2n3CCCCC2)C1` (stereo unspecified) the Potency was inconclusive [activator, single point].
For `Cc1ccc(Cl)cc1NC(=O)C(=O)NCC(c1cccnc1)N1CCc2ccccc21` (stereo unspecified), the Potency was inconclusive [activator, full curve, poor fit].
For `C[C@H](CO)N1C[C@H](C)[C@@H](CN(C)C(=O)c2cnccn2)Oc2cc(C#CCC3CCCC3)ccc2S1(=O)=O`, the Potency was inconclusive [activator, single point].
For `CCCC(=O)Nc1ccc(Br)c(Cl)c1`, the Potency was inconclusive [activator, single point].
With `Cc1ccc(Cl)cc1N1CCN(CCNC(=O)Nc2ccccc2Cl)CC1` the Potency was “inactive”.
In the case of `COc1cc(NC(=O)c2nc(-c3ccncc3)no2)cc(OC)c1OC`, the Potency is reported as “inactive”.
For `COc1cccc(C2=CC(=O)CC(C)(C)C2)c1OC`, the Potency was inconclusive [activator, partial curve].
With `COc1ccccc1/C=C(\C#N)C(=O)c1cccn1C` the Potency was inconclusive [activator, single point].
With `CC1(C)Cc2c(cnn2-c2cccc(F)c2)C(NC(=O)c2csnn2)C1` (stereo unspecified) the Potency was inconclusive [activator, single point].
With `Cc1c(NC(=O)c2ccco2)cccc1-c1nc2cccnc2s1` the Potency was inconclusive [activator, single point].
For `COc1ccc(C(=O)N2CCCc3ccccc32)cc1`, the Potency was “inactive”.
In the case of `O=C(c1cnn2c(C(F)(F)F)cc(-c3ccc(F)cc3)nc12)N1CCc2ccccc2C1`, the Potency is reported as inconclusive [activator, partial curve].
With `Cc1cccc(NC(=O)NC(=O)c2ccccc2)n1` the Potency was “inactive”.
With `O=C(c1ccccc1)N1c2ncnn2C2(CCCCC2)[C@@H]2CCCC[C@@H]21` the Potency was active: 35.5 µM.
For `CCc1ccccc1NC(=O)CCN1C(=O)c2ccccc2C1=O`, the Potency was inconclusive [activator, single point].
With `COc1ccc(C(=O)c2oc3ccccc3c2NC(=O)COc2cccc(C)c2C)cc1` the Potency was “inactive”.
With `Cc1ccccc1C(=O)N(Cc1nc(-c2ccc(Cl)cc2)no1)C(C)C` the Potency was inconclusive [activator, partial curve, poor fit].
In the case of `Cc1ccc(NC(=O)C(=O)NCCN2CCN(S(=O)(=O)c3ccccc3)CC2)cc1C`, the Potency is reported as inconclusive [activator, full curve, poor fit].
For `O=C(N/N=C/c1cc(Br)c(O)c(Br)c1O)c1ccc2c(c1)OCCO2`, the Potency was inconclusive [activator, single point].
In the case of `C/C(N)=C(/C#N)C(=O)COC(=O)c1cc2c(s1)CCCC2`, the Potency is reported as inconclusive [activator, single point].
For `COc1cc(-c2noc(CCC(=O)Nc3cc(C)ccc3C)n2)cc(OC)c1OC`, the Potency was inconclusive [activator, partial curve].
In the case of `COc1ccc(OC)c(-n2nnnc2SCC(=O)Nc2ccccc2OC)c1`, the Potency is reported as inconclusive [activator, partial curve].
For `CCc1nc(SCC(=O)Nc2nc3c(s2)CCCC3)c2ccccc2n1`, the Potency was active: 10 µM.
In the case of `Cc1cccc(C)c1NC(=O)C(c1ccncc1)n1c(=O)c(-c2cc3ccccc3[nH]2)nc2ccccc21` (stereo unspecified), the Potency is reported as active: 14.1 µM.
For `COc1ccc(C2=Nc3ccccc3NC(=O)C2N(CCCn2ccnc2)C(=O)c2cccc(S(C)(=O)=O)c2)cc1` (stereo unspecified), the Potency was “inactive”.
In the case of `CCOC(=O)c1c(-c2ccc(OC)cc2)oc2ccc(O)cc12`, the Potency is reported as inconclusive [activator, single point].
With `CC(=O)/C=C/n1c(=S)oc2ccccc21` the Potency was inconclusive [activator, single point].
